Results on 54 compounds are retold here after ChEMBL document CHEMBL4888484, “Replenishing the malaria drug discovery pipeline: Screening and hit evaluation of the MMV Hit Generation Library 1 (HGL1) against asexual blood stage Plasmodium falciparum ,using a nano luciferase reporter read-out” (2022).

SMILES strings stand for the structures. The whole screen tested about 150,000 compounds, of which about 540 (0.36%) showed an effect of 50% or more. This is one part of the list.

The test system of this experiment is Plasmodium falciparum. As to the kind of experiment: Primary screen in NF54 nanoGlo assay, in single point, at 2uM, 72h; a lower Z score goes with more inhibition. Type of experiment: functional, Erythrocyte. Conditions: timepoint 72 hour.
For `Cc1noc(-c2c(C)sc(C)c2S(=O)(=O)Nc2ccccc2F)c1C`, the “% Inhibition” value is recorded as -2% and the Z score is given as 0.26.

Turning to `CC(C)(C)C[C@H]1CCCN1C(=O)c1nnn(C2CCNCC2)c1C(F)F`, the “% Inhibition” value amounted to 0% and the Z score is given as -0.05.

On to `CC(C)Cc1ccc([C@H](C)C(=O)NC2CC[S+]([O-])CC2)cc1` (stereo partly drawn), for which the “% Inhibition” value was -4% and the Z score is 0.47.

Regarding `Cc1cccc(CN2CCn3nnc(-c4nc(-c5ccccc5)no4)c3C2=O)c1`, the “% Inhibition” value is recorded as -6% and the Z score is 0.67.

For the compound `COc1c[nH]c(C=Cc2cccc(C(=O)O)c2Cl)nc1=O`, the “% Inhibition” value was -5% and the Z score is 0.8.

For the compound `C[C@@]1(C(=O)NCc2ccccc2)Cn2nc(-c3ccccc3)cc2C(=O)N1c1ccc2c(c1)OCCO2`, the “% Inhibition” value is 52% and the Z score is given as -8.25.

With `COc1nc(CNC(=O)[C@@H]2CCc3ccccc3O2)nc(N(C)C)n1`, the “% Inhibition” value turned out to be 1% and the Z score is on record as -0.11.

Turning to `CS(=O)(=O)N1CCC(C(=O)N(Cc2ccccn2)c2nc3ccc(F)cc3s2)CC1`, the “% Inhibition” value was -12% and the Z score was 2.08.

For the compound `COc1ccc(C2CCCN2C(=O)C2CCCO2)cc1OC` (stereo not drawn), the “% Inhibition” value is listed as -3% and the Z score came to 0.37.

For `Cc1ccc(-n2nc(C(=O)N3CCOCC3)c(=O)n(Cc3ccc(F)cc3)c2=O)cc1`, the “% Inhibition” value is given as 3% and the Z score was -0.47.

Consider `Cc1cc(C)n(CCN(C)c2nnnn2-c2ccccc2)n1`, for which the “% Inhibition” value was found to be 3% and the Z score was -0.56.

Regarding `O=C(CS(=O)(=O)c1cccc(Br)c1)NC[C@H](n1cccn1)C(F)(F)F`, the “% Inhibition” value is -7% and the Z score turned out to be 1.28.

For the compound `CCN(CC)C(=O)c1coc(COc2ccc3c(c2)[C@H](c2cccc(F)c2)N(C(=O)CC(C)C)CC3)n1`, the “% Inhibition” value was -2% and the Z score is 0.18.

As for `Cc1cc(S(=O)(=O)N2C[C@@H]3CCC[C@@H](C3)C2)c(Cl)cc1F`, the “% Inhibition” value is -9% and the Z score was determined as 1.52.

With `COc1ccc(N2C(=O)c3cc4ccccc4n3C[C@@]2(C)C(=O)NC2CCCCC2)cc1`, the “% Inhibition” value came out at 2% and the Z score is -0.3.

As to `O=C(Nc1cccnc1)c1cccc(S(=O)(=O)N[C@H]2CCCNC2=O)c1`, the “% Inhibition” value was -17% and the Z score was 1.78.

For `CCN(CCO)C(=O)c1cnc(Cc2c(Cl)cccc2Cl)nc1O`, the “% Inhibition” value was -17% and the Z score turned out to be 2.34.

For the compound `Cc1ccsc1-c1nc(CN2[C@@H]3CC[C@H]2C[C@@H](O)C3)c(C)o1`, the “% Inhibition” value is listed as 3% and the Z score is recorded as -0.25.

On to `C=CCNC(=O)c1ccc(-c2ccc3c(c2)OCCO3)o1`, for which the “% Inhibition” value is reported as -3% and the Z score stood at 0.66.

In the case of `COC(=O)CCN1CC[C@H](NC(=O)c2cc(F)ccc2O)C1=O`, the “% Inhibition” value is 3% and the Z score is reported as -0.29.

As for `COC(=O)[C@@H](C)CS(=O)(=O)NCc1nc(C)cs1`, the “% Inhibition” value is recorded as -3% and the Z score turned out to be 0.35.

Turning to `c1cn(Cc2noc(C3CC3)n2)c(CN2CCOCC2)n1`, the “% Inhibition” value turned out to be 4% and the Z score is reported as -0.48.

In the case of `Cc1cc(NC(=O)N2C[C@H](Cc3ccccc3)[C@@H](O)C2)no1`, the “% Inhibition” value was -10% and the Z score came to 1.01.

In the case of `C#CCCC1(CCC(=O)N2CCCC[C@H]2c2ccc(CC)o2)N=N1`, the “% Inhibition” value is given as -4% and the Z score is 0.5.

`CNc1nc(CN(C)Cc2snnc2C)cs1`: the “% Inhibition” value is given as -2% and the Z score worked out at 0.21.

Take `N#Cc1c2c(c3nncn3c1Nc1ccc(Cl)cc1)CCCC2`: the “% Inhibition” value was 5% and the Z score is -0.55.

Regarding `CCc1cccc2c(-c3csc(CCN4CCOC4=O)n3)c[nH]c12`, the “% Inhibition” value was -11% and the Z score is 1.52.

Regarding `CN1CCC(N(C)C(=O)c2ccccc2NC2CCCCC2)CC1`, the “% Inhibition” value worked out at 6% and the Z score was -1.03.

For `Cn1ccnc1[C@@]1(CNC(=O)c2ccc(-c3cc[nH]n3)s2)NC(=O)NC1=O`, the “% Inhibition” value was -28% and the Z score turned out to be 3.01.

As for `Cc1n[nH]c(C)c1CCNC(=O)c1cc(CO)ccn1`, the “% Inhibition” value was 6% and the Z score is listed as -1.24.

`Cc1ccc(C(=O)N2CCC(COc3ccccc3C(=O)NC3CC3)CC2)c(C)c1`: the “% Inhibition” value is -10% and the Z score came out at 1.98.

Consider `Cn1nc(NC(=O)c2ccccc2)c2c1CCN(C(=O)C1CCCCC1)C2`, for which the “% Inhibition” value was -22% and the Z score turned out to be 1.98.

As for `O=C(C[C@H]1CCOC1)N1CCCN(C2CCCCC2)CC1`, the “% Inhibition” value was -12% and the Z score is listed as 1.56.

Consider `CCc1ccc2ncn(CC3CCOCC3)c(=O)c2c1`, for which the “% Inhibition” value is -2% and the Z score worked out at 0.32.

With `Cn1ncc(NC(=O)Cn2ccc3cc(-c4ccc(CO)cc4)ccc32)n1`, the “% Inhibition” value was -12% and the Z score came to 2.07.

As for `Cc1nccc(CCC(=O)Nc2nc(C(C)C)cs2)n1`, the “% Inhibition” value was -2% and the Z score stood at 0.42.

Take `Cn1ccnc1-c1nccn1CCS(C)(=O)=O`: the “% Inhibition” value was -19% and the Z score amounted to 2.21.

Take `CCn1cnnc1-c1nn(C)c2c1CN(C(=O)Cc1ccccc1F)CC2`: the “% Inhibition” value is given as -12% and the Z score worked out at 1.77.

On to `C[C@@H](c1nc(C(C)(C)C)no1)N1CCN(c2nccs2)CC1`, for which the “% Inhibition” value is recorded as -12% and the Z score is recorded as 1.75.

As to `CCCN1CCCCC1C(=O)NC1CCc2nccn2C1` (stereo not drawn), the “% Inhibition” value is listed as -1% and the Z score was 0.28.

Take `COc1ccc(CN2CC[C@@H]2CNC(=O)c2cn(CC(N)=O)nn2)cc1`: the “% Inhibition” value is given as -3% and the Z score was 0.63.

In the case of `O=C(NCCc1csc(=O)[nH]1)c1nc2ccccc2cc1C1CC1`, the “% Inhibition” value was -4% and the Z score came out at 0.56.

For the compound `O=C(c1ccc(Cl)o1)N(Cc1ccco1)c1ccccn1`, the “% Inhibition” value is recorded as -12% and the Z score worked out at 1.89.

As to `CCCc1ccccc1NC(=O)NC1CCS(=O)(=O)CC1`, the “% Inhibition” value is recorded as -12% and the Z score is on record as 1.97.

On to `CC(C)Cc1nsc(N[C@@H](CCCO)c2ccccc2)n1`, for which the “% Inhibition” value is -10% and the Z score came out at 1.11.

Regarding `CCOC(=O)C[C@H](Nc1nc(N2CCOCC2)nc(N2CCOCC2)n1)c1ccccc1Cl`, the “% Inhibition” value is listed as 2% and the Z score was -0.24.

In the case of `O=C(NCc1cccc(-c2ncc[nH]2)c1)[C@H]1CCCC[C@@H]1C(F)(F)F`, the “% Inhibition” value is listed as -4% and the Z score was 0.71.

With `CN(CC(C)(CO)CO)C(=O)c1ccsc1`, the “% Inhibition” value came out at 6% and the Z score is given as -0.9.

Turning to `Nc1ncc(CCC(=O)N[C@H]2CCN(C3CCCCC3)C2=O)s1`, the “% Inhibition” value is reported as 0% and the Z score is on record as 0.06.

Turning to `Cc1nc(CCN2CCC(c3cc[nH]n3)CC2)cs1`, the “% Inhibition” value is recorded as -3% and the Z score is 0.61.

`O=C(CN1CCN(Cc2nnsc2Cl)CC1)N1CCCc2ccccc21`: the “% Inhibition” value was -16% and the Z score is 1.84.

As to `COc1ccc(CN(CCN2CCOCC2)C(=O)c2cc3cc(F)ccc3[nH]2)cc1OC`, the “% Inhibition” value is -7% and the Z score is 1.01.

In the case of `Cc1ccc(C(=O)NC[C@H]2CCS(=O)(=O)C2)o1`, the “% Inhibition” value is recorded as -2% and the Z score is 0.31.

For `c1cnn(-c2cncc(N3CCC4(CCCCCC4)C3)n2)c1`, the “% Inhibition” value is reported as 5% and the Z score is -0.78.
